# Measurements reported in PubChem BioAssay (NCATS).
# Values joined by “and” are separate entries in the source; they are usually repeats but may differ in a detail not shown here. Equal values may be shown once. The shares of active, inactive and inconclusive entries below differ from those in the screen. A potency beside an inconclusive call is a rough fit, not a confirmed value. Active and inactive are the calls of the source. Unless noted, calls follow the shape of the dose curve; as a rule, active = well fitted curve in the direction sought with a large enough effect; inconclusive = small, poorly fitted or top-dose-only effect, or another doubt; inactive = no such curve, though single readings can be large; an effect the other way counts as inactive or inconclusive.
# Tests used:
# [1] = P-glycoprotein substrates identified in KB-8-5-11 adenocarcinoma cell line, qHTS therapeutic library screen (AID 1346987); also: nearly all actives have a fitted effect of over 65% in size
# In short: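 In this qHTS, P-gp-rich KB-8-5-11 cells received library compounds across a concentration range. Viability was quantified by luminescence after 72 h at 37 degree C.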
# [2] = qHTS of pediatric cancer cell lines to identify multiple opportunities for drug repurposing: Primary screen for Rh41 cells (AID 1347108); also: nearly all actives have a fitted effect of over 70% in size
# In short: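 Plated cells (500-1,000 per well, growth media) were allowed to settle for 5 hours, treated with compound dilutions for 48 hours, then lysed with CellTiter-Glo for 15 min at room temperature before luminescence reading.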
# KB-3-1 = assay: Cytotoxic Profiling of Annotated Libraries Using Quantitative High-Throughput Screening (AID 1296008); conditions: Five cell lines viability, CellTiter-Glo ATP luminescence, 48-72 h; max response: stronger effect = lower value; also: nearly all actives have a fitted effect of over 60% in size; as to max response: % is scaled to controls: 0 for no effect and ±100 for the full control effect
# In short: (§1)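 Cells exposed to compounds for 48 or 72 hr at 37 degrees Celsius. Viability read as ATP-coupled luminescence with CellTiter-Glo after 10 min at room temperature.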
# C33A = assay: Primary qHTS to identify gynecologic anti-cancer compounds using libraries of approved drugs and bioactive compounds (AID 1345084); conditions: Gynecologic cancer cell panel viability, ATPlite luminescence, 48 h; series mostly up to 57.5 µM; also: nearly all actives have a fitted effect of over 55% in size; as to activity change, negative = cytotoxicity: % is scaled to controls: 0 for no effect and ±100 for the full control effect
# In short: (§2)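 In this quantitative HTS, cell killing is estimated from loss of ATP-dependent luciferase light. Cells see five compound concentrations over a 48 h exposure.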
# CAOV3 = assay: as above; conditions: Gynecologic cancer cell panel viability, ATPlite luminescence, 48 h; activity change, negative = cytotoxicity: at 57.5 µM (top of the series)
# In short: as §2
# OV90 = assay: as above; conditions: Gynecologic cancer cell panel viability, ATPlite luminescence, 48 h; series mostly up to 57.5 µM
# In short: as §2
# PA-1 = assay: as above; conditions: Gynecologic cancer cell panel viability, ATPlite luminescence, 48 h; series mostly up to 57.5 µM
# In short: as §2
# Tov112D = assay: as above; conditions: Gynecologic cancer cell panel viability, ATPlite luminescence, 48 h; series mostly up to 57.5 µM
# In short: as §2
# [3] = Primary qHTS for inhibitors of nuclear receptor binding SET domain protein 2 (NSD2) in an isogenic RCH-ACV NSD2 p.E1099K mutant (9B) (AID 1645876); also: nearly all actives have a fitted effect of over 70% in size
# [4] = Primary qHTS for inhibitors of nuclear receptor binding SET domain protein 2 (NSD2) in an RCH-ACV wild type WT cells (2C) (AID 1645877); conditions: activity change, negative = cell killing: at 44.9 µM (top of the series) unless noted; also: nearly all actives have a fitted effect of over 70% in size
# [5] = Primary fluorescence-based thiol-reactive (MSTI) qHTS assay for identification of artifact compounds. (AID 1845221);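 also: thiol-reactive compounds lower the probe fluorescence signal; nearly all actives have a fitted effect of over 65% in size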
# In short: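 One-hour, room-temperature, dark incubation of compound with 4 uM MSTI in PBS (pH 7.4, 2% DMSO) precedes a fluorescence read at 525 nm excitation, 598 nm emission; Hill-equation fitting yields concentration-response values.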
# NIH3T3 = assay: Cytotoxic Profiling of Annotated Libraries Using Quantitative High-Throughput Screening (AID 1296008); conditions: Five cell lines viability, CellTiter-Glo ATP luminescence, 48-72 h; max response: stronger effect = lower value; also: nearly all actives have a fitted effect of over 60% in size; as to max response: % is scaled to controls: 0 for no effect and ±100 for the full control effect
# In short: as §1
# [6] = target: Cytochrome P450 2D6 (Homo sapiens) (UniProt P10635); assay: Cytochrome P450 family 2 subfamily D member 6 (CYP2D6) small molecule antagonists: luciferase biochemical (cell-free) qHTS assay (AID 1645840; active = well fitted curve in the direction sought with a large enough effect in the repeat runs; inconclusive = weak or mixed curves; inactive = no such curve, though single readings can be large; an effect the other way counts as inactive or inconclusive; also: nearly all actives have a fitted effect of over 55% in size)
# UniProt P10635, sequence (P10635 whole entry, looked up): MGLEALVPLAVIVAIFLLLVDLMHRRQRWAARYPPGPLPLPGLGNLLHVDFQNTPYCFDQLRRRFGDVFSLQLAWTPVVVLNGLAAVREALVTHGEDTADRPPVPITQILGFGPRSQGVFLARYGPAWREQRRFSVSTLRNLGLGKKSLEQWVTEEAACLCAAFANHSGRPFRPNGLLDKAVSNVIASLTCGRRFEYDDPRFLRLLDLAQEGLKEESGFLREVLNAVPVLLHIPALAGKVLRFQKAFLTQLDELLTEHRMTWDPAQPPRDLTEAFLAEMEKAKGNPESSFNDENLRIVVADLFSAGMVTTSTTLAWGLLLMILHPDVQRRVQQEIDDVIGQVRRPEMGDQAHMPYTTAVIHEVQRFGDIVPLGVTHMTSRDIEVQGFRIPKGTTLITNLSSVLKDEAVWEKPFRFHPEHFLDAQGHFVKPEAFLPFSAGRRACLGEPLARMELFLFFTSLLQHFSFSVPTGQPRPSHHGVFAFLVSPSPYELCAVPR
# In short: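 P450-Glo CYP2D6 system: proluciferin substrate converted by enzyme to luciferin, read by luminescence proportional to activity. Enzyme-substrate mix with compound 10 min at room temperature, then NADPH regeneration 1 h before detection reagent.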
# CASKI = assay: Primary qHTS to identify gynecologic anti-cancer compounds using libraries of approved drugs and bioactive compounds (AID 1345084); conditions: Gynecologic cancer cell panel viability, ATPlite luminescence, 48 h; series mostly up to 57.5 µM; also: nearly all actives have a fitted effect of over 55% in size; as to activity change, negative = cytotoxicity: % is scaled to controls: 0 for no effect and ±100 for the full control effect
# In short: as §2
# Hek293T = assay: as above; conditions: Gynecologic cancer cell panel viability, ATPlite luminescence, 48 h, control line for the selectivity index; activity change, negative = cytotoxicity: at 57.5 µM (top of the series) unless noted
# In short: as §2
# SKOV3 = assay: as above; conditions: Gynecologic cancer cell panel viability, ATPlite luminescence, 48 h; series mostly up to 57.5 µM
# In short: as §2
# Tov-21-G = assay: as above; conditions: Gynecologic cancer cell panel viability, ATPlite luminescence, 48 h; activity change, negative = cytotoxicity: at 57.5 µM (top of the series) unless noted
# In short: as §2
# Es-2 = assay: as above; conditions: Gynecologic cancer cell panel viability, ATPlite luminescence, 48 h; series mostly up to 57.5 µM
# In short: as §2
# HeLa = assay: as above; conditions: Gynecologic cancer cell panel viability, ATPlite luminescence, 48 h; activity change, negative = cytotoxicity: at 57.5 µM (top of the series)
# In short: as §2
# Potency is read from the fitted curve at half-maximal effect; tags tell the direction and shape of the fitted curve.
smiles,measurement,setting,value
CC(C)n1c(/C=C/[C@@H](O)C[C@@H](O)CC(=O)O)c(-c2ccc(F)cc2)c2ccccc21,Potency,[1],"inconclusive: 32.6 µM [inhibitor, single point]"
same,Potency,[2],"inconclusive: 8.41 µM [cytotoxic, partial curve]"
same,Potency,KB-3-1,"inconclusive: 29.1 µM [inhibitor, single point]"
same,Potency,C33A,"inconclusive: 20 µM [cytotoxic, partial curve, poor fit]"
same,Potency,CAOV3,"inconclusive: 25.1 µM [cytotoxic, partial curve, poor fit]"
same,Potency,OV90,active: 8.91 µM
same,Potency,PA-1,"inconclusive: 2.82 µM [cytotoxic, single point]"
same,Potency,Tov112D,"inconclusive: 2.82 µM [cytotoxic, full curve]"
O=C(Cn1ccnc1[N+](=O)[O-])NCCO,Potency,[3],inactive
same,max response,KB-3-1,inactive: 0.623%
Cc1csc(NC(=O)c2ccc(COc3cccc(Cl)c3)o2)n1,Potency,[3],"inconclusive: 16.3 µM [inhibitor, partial curve]"
same,Potency,[4],"inconclusive: 20.5 µM [inhibitor, partial curve]"
same,Potency,[5],inactive
same,max response,KB-3-1,inactive: -1.89%
same,Potency,NIH3T3,"inconclusive: 20.6 µM [inhibitor, single point]"
same,Potency,OV90,inactive
same,Potency,Tov112D,inactive
N=c1nc(N2CCCCC2)cc(N)n1O,Potency,[1],"inconclusive: 33.2 µM [inhibitor, single point]"
same,Potency,[6],active: 7.76 µM
same,Potency,KB-3-1,"inconclusive: 33.2 µM [inhibitor, single point]"
same,Potency,CASKI,"inconclusive: 8.91 µM [cytotoxic, single point]"
CN1CC[C@H](c2c(O)cc(O)c3c(=O)cc(-c4ccccc4Cl)oc23)[C@H](O)C1,Potency,[1],"inconclusive: 1.03 µM [inhibitor, full curve, poor fit]"
same,Potency,[2],"inconclusive: 0.668 µM [cytotoxic, full curve]"
same,Potency,[3],active: 0.0211 µM
same,Potency,KB-3-1,active: 1.03 µM
same,Potency,C33A,active: 1.26 µM
same,Potency,CAOV3,"inconclusive: 1.41 µM [cytotoxic, full curve]"
same,Potency,CASKI,active: 0.708 µM
same,Potency,Hek293T,"inconclusive: 0.447 µM [cytotoxic, full curve]"
same,Potency,OV90,"inconclusive: 0.708 µM [cytotoxic, partial curve, poor fit]"
same,Potency,SKOV3,"inconclusive: 1.26 µM [cytotoxic, full curve, poor fit]"
same,Potency,Tov-21-G,"inconclusive: 0.501 µM [cytotoxic, full curve]"
NC(N)=N/N=C/c1c(Cl)cccc1Cl,Potency,[1],"inconclusive: 29.1 µM [inhibitor, single point]"
same,Potency,[3],"inconclusive: 29.9 µM [inhibitor, single point]"
same,Potency,[4],"inconclusive: 23.7 µM [inhibitor, single point]"
same,max response,KB-3-1,inactive: 0.665%
same,Potency,CAOV3,inactive
same,Potency,Es-2,inactive
same,Potency,OV90,"inconclusive: 20 µM [cytotoxic, single point]"
same,Potency,SKOV3,"inconclusive: 35.5 µM [rising, single point]"
COC(=O)C12C(=O)C(C)=C(O)C1(C)C(C)=CC1C34CCC(OC3=O)C(C)(C)C4CCC12C (stereo unspecified),Potency,[4],inactive
same,Potency,[5],"inconclusive: 4.62 µM [inhibitor, partial curve]"
same,max response,KB-3-1,inactive: 6.41%
same,outcome,NIH3T3,inactive
same,Potency,HeLa,inactive
same,Potency,OV90,inactive
CC1=C(CO)C2(C)CCCC(C)(C)C2C(O)C1O (stereo unspecified),Potency,[3],inactive
same,Potency,[5],"inconclusive: 11.9 µM [inhibitor, partial curve]"
same,outcome,KB-3-1,inactive
same,outcome,NIH3T3,inactive
same,Potency,HeLa,inactive
CC(C)c1ccccc1OC(=O)NCCc1ccc2ccccc2c1,Potency,[1],"inconclusive: 18.4 µM [inhibitor, single point]"
same,Potency,[6],"inconclusive: 8.49 µM [inhibitor, full curve]"
same,Potency,[5],inactive
same,Potency,KB-3-1,"inconclusive: 18.4 µM [inhibitor, single point]"
same,max response,NIH3T3,inactive: 3.78%
same,Potency,SKOV3,"inconclusive: 20 µM [rising, single point]"
CCOC(=O)OC(C)OC(=O)[C@@H]1N2C(=O)[C@@H](NC(=O)[C@H](N)c3ccccc3)[C@H]2SC1(C)C (stereo partly specified),Potency,[4],inactive
same,max response,KB-3-1,inactive: -3.71%
same,Potency,OV90,inactive
CS(=O)(=O)NCC1CCC(Nc2nc3c(s2)CCSc2ccccc2-3)CC1 (stereo unspecified),Potency,[1],"inconclusive: 29.1 µM [inhibitor, single point]"
same,Potency,[3],"inconclusive: 18.3 µM [inhibitor, single point]"
same,Potency,[4],"inconclusive: 25.8 µM [inhibitor, single point]"
same,Potency,[5],"inconclusive: 1.19 µM [inhibitor, full curve, poor fit]"
same,max response,KB-3-1,inactive: -22.2%
same,Potency,NIH3T3,"inconclusive: 29.1 µM [inhibitor, partial curve, poor fit]"
same,Potency,OV90,"inconclusive: 39.8 µM [cytotoxic, single point]"
same,Potency,PA-1,"inconclusive: 31.6 µM [cytotoxic, single point]"
same,Potency,SKOV3,"inconclusive: 8.91 µM [cytotoxic, single point]"
O=C(O)[C@@H]1[C@H]2C[C@H]3c4[nH]c5ccccc5c4CCN3C[C@@H]2CC[C@@H]1O,Potency,[1],inactive
same,max response,KB-3-1,inactive: 7.03%
same,Potency,CAOV3,inactive
same,Potency,OV90,"inconclusive: 31.6 µM [cytotoxic, single point]"
same,Potency,SKOV3,inactive
O=C(Nc1cn[nH]c1-c1nc2ccc(CN3CCOCC3)cc2[nH]1)NC1CC1,Potency,[1],"inconclusive: 37.2 µM [inhibitor, partial curve, poor fit] and inactive"
same,Potency,[2],active: 4.69 µM
same,Potency,KB-3-1,active: 5.9 µM and active: 4.11 µM
same,Potency,C33A,active: 14.1 µM
same,Potency,CAOV3,"inconclusive: 2.82 µM [cytotoxic, full curve]"
same,Potency,CASKI,active: 2 µM
same,Potency,Es-2,active: 14.1 µM
same,Potency,HeLa,"inconclusive: 11.2 µM [cytotoxic, partial curve, poor fit]"
same,Potency,Hek293T,active: 7.94 µM
same,Potency,PA-1,active: 8.91 µM
same,Potency,SKOV3,active: 10 µM
same,Potency,Tov-21-G,active: 2.24 µM
same,Potency,Tov112D,active: 11.2 µM
O=C(NCCc1c[nH]c2ccccc12)c1cccnc1,Potency,[1],inactive
same,Potency,[2],inactive
same,Potency,[6],"inconclusive: 30.9 µM [inhibitor, single point]"
same,max response,KB-3-1,inactive: -10.3%
same,Potency,Es-2,"inconclusive: 31.6 µM [cytotoxic, single point]"
same,Potency,OV90,"inconclusive: 35.5 µM [cytotoxic, single point]"
C#C[C@]1(OC(C)=O)CC[C@H]2[C@@H]3CCC4=C/C(=N/O)CC[C@@H]4[C@H]3CC[C@@]21CC,Potency,[2],"inconclusive: 23.7 µM [cytotoxic, single point]"
same,Potency,[6],"inconclusive: 8.71 µM [inhibitor, partial curve]"
same,Potency,[3],"inconclusive: 33.5 µM [inhibitor, single point]"
same,Potency,[4],"inconclusive: 33.5 µM [inhibitor, single point]"
same,Potency,KB-3-1,"inconclusive: 32.6 µM [inhibitor, single point]"
same,Potency,CAOV3,"inconclusive: 39.8 µM [rising, partial curve, poor fit]"
same,Potency,HeLa,active: 4.47 µM
same,Potency,OV90,inactive
same,Potency,Tov-21-G,"inconclusive: 12.6 µM [rising, partial curve, poor fit]"
same,Potency,Tov112D,"inconclusive: 28.2 µM [cytotoxic, single point]"
C[C@@H](Oc1ccc2[nH]nc(C=Cc3cnn(CCO)c3)c2c1)c1c(Cl)cncc1Cl,Potency,[1],active: 0.332 µM
same,Potency,[2],active: 14.8 µM
same,Potency,KB-3-1,active: 0.418 µM
